The campaign covered roughly 230,000 compounds. About 3,600 (1.6%) were called active. The inconclusive results got no clear call from the source; some entries with a clear call stand among them for comparison. Calls follow the shape of the dose curve; as a rule, active = well fitted inhibition curve with a large enough effect (not every such curve was filed as active); inconclusive = small, poorly fitted or top-dose-only effect, or another doubt; inactive = no such curve, though single readings can be large or run the other way. Where the call is inconclusive, the potency comes from a doubtful curve fit.
Biological target: Lysine-specific demethylase 4E (Homo sapiens) (UniProt B2RXH2)
Test: qHTS Assay for Inhibitors of Human Jumonji Domain Containing 2E (JMJD2E)
Details: JMJD2E catalytic domain, FDH-coupled NADH fluorescence (FDH is formaldehyde dehydrogenase); series mostly up to 57.1 µM; activity change, negative = inhibition: at the top concentration
Also: nearly all actives have a fitted effect of over 50% in size.
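For activity change, negative = inhibition in this document: 0% = wells with enzyme and -100% = buffer wells without enzyme.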
Potency is read from the fitted curve at half-maximal effect; tags tell the direction and shape of the fitted curve.

UniProt B2RXH2, sequence (B2RXH2 whole entry, looked up, the tested form may be a part): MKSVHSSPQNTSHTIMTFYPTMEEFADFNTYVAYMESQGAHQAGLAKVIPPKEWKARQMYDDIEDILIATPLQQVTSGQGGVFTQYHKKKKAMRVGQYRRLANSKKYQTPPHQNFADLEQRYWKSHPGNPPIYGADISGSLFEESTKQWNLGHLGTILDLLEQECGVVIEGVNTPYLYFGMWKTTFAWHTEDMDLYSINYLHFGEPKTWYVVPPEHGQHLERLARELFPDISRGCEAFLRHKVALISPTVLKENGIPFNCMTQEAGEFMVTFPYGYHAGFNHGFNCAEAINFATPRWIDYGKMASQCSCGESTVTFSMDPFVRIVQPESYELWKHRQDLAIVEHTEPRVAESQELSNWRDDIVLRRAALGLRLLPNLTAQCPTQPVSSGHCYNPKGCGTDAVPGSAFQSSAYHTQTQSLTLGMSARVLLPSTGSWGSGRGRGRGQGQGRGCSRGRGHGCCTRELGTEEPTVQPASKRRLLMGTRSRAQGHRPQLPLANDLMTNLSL

| SMILES | activity change, negative = inhibition | Potency |
| --- | --- | --- |
| O=c1c(-c2ccco2)[n+]([O-])c2ccccc2n1OCc1c(F)cccc1F | inactive: -3.95% | – |
| CN=C(C)/C(C(=O)OC)=C(/O)c1c(F)cccc1F | inactive: 6.79% | – |
| O=c1cc(-c2ccccc2Cl)oc2c([N+](=O)[O-])c(O)cc(O)c12 | inactive: -1.55% | – |
| COC(=O)c1ccc2c(=O)[nH]c(CN3c4ccccc4CC3C)nc2c1 (configuration not stated) | inactive: -7.51% | – |
| COc1ccc(Br)cc1CN(C)C(C)C(=O)Nc1cccc(C(C)=O)c1 (configuration not stated) | inactive: -9.73% | – |
| COc1ccc(-c2nc3ccc(N4CCCC4)cc3c(=O)[nH]2)cc1OC | – | inconclusive: 3.16 µM [inhibitor, full curve] |
| OCCN1CCOCCOCCN(CCO)CCN(CCO)CC1 | – | inconclusive: 39.8 µM [inhibitor, single point] |
| CCOC(=O)c1c(NC(=O)C(Sc2ccccc2)c2ccccc2)sc(C(=O)N(C)C)c1C (configuration not stated) | inactive: -7.34% | – |
| Cc1nc2c(C(=O)NCCC3=CCCCC3)c[nH]n2c(=O)c1Cl | – | inconclusive: 35.5 µM [inhibitor, single point] |
| O=C(N/N=C/c1cccc([N+](=O)[O-])c1O)c1cccs1 | – | active: 3.98 µM |
| Oc1ccc2c(c1)oc1cc(O)ccc12 | – | inconclusive: 35.5 µM [inhibitor, single point] |
| CCN1CCN(c2cc(C)c3cc(NC(=S)N4CCCCC4)ccc3n2)CC1 | – | inconclusive: 25.1 µM [inhibitor, partial curve] |
| Cc1cccc(C(=O)Nc2nc(C)c(C(=O)Nc3ccc4c(c3)CCC4)s2)c1 | – | inconclusive: 31.6 µM [inhibitor, single point] |
| O=C(Nc1ccc2c(c1)OCCO2)c1cnccn1 | inactive: 2.22% | – |
| CCC(=C(c1ccc(OC)cc1)c1ccc(OC)cc1)c1cn(CC(O)CN(CCO)CCO)c2ccccc12 (configuration not stated) | – | inconclusive: 35.5 µM [inhibitor, single point] |
| CS(=O)(=O)N(CC(=O)N1CCN(c2ccccc2)CC1)c1cccc(Br)c1 | inactive: 2.66% | – |
| C=CCn1c(SCC(=O)OC)nc2sc3c(c2c1=O)CCN(C)C3 | – | inconclusive: 25.1 µM [inhibitor, partial curve] |
| CC(C)CC1c2[nH]c3ccccc3c2CCN1CCCn1cccn1 (configuration not stated) | – | inconclusive: 28.2 µM [inhibitor, single point] |
| COC(=O)Cc1c(O)ccn(Cc2cccc3ccccc23)c1=O | inactive: 7.32% | – |
| COC(=O)CSc1nc(NCC(C)C)nc(N2CCOCC2)n1 | inactive: 1.51% | – |
| O=C(COC(=O)C(O)C(O)C(=O)OCC(=O)c1ccc(C(F)(F)F)cc1)c1ccc(C(F)(F)F)cc1 (configuration not stated) | inactive: 5.01% | – |
| O=C(NNC(=O)c1ccc(Br)o1)c1ccc(NC(=O)c2ccccc2)cc1 | – | inconclusive: 35.5 µM [inhibitor, single point] |

— PubChem BioAssay AID2147 (National Center for Advancing Translational Sciences (NCATS), 2009)
